The whole screen tested about 310,000 compounds, of which about 14,000 (4.5%) showed an effect of 50% or more. The effect is printed as a negative number. The list shows a part of the results.
Biological target: human ether-à-go-go-related gene (hERG) potassium channel (human, UniProt Q12809)
Test: primary screen, population patch clamp on CHO cells stably expressing hERG
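Also: peak tail current of the secondary pulse compared with the same well before compound.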

human ether-à-go-go-related gene (hERG) potassium channel, sequence (Q12809 whole entry, looked up): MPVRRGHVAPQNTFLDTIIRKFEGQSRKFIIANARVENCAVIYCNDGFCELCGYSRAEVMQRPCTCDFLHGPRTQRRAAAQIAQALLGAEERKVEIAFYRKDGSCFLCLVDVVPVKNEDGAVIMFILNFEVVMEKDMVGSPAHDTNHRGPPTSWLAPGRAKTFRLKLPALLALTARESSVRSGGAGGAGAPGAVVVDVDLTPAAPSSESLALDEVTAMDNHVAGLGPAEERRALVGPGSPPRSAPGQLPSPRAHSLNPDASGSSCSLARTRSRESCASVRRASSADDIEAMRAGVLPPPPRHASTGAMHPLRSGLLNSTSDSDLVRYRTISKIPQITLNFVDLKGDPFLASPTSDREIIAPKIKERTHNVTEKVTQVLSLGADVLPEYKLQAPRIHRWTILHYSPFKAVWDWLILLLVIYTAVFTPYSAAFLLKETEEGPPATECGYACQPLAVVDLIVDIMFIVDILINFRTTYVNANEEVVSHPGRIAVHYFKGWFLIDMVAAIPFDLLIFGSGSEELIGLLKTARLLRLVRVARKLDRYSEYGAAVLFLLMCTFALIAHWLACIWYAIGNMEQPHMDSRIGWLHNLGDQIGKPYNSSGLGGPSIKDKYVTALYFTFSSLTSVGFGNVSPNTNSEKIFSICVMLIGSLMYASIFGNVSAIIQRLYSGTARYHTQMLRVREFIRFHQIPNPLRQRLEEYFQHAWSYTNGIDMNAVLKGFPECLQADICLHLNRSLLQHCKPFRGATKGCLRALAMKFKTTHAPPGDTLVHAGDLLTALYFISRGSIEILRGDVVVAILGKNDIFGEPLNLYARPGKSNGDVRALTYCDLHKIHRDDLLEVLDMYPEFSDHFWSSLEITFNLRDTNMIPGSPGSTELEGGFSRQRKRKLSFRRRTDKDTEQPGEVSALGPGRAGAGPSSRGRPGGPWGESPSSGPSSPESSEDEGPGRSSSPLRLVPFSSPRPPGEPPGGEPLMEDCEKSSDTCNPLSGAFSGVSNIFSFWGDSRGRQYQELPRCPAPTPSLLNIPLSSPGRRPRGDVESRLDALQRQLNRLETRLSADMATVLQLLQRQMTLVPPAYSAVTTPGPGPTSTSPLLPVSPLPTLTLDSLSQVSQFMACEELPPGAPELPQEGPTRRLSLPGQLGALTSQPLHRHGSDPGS

Structure (SMILES)	hERG current change (%, negative = inhibition) at 10uM [%]
CCC(=O)NC(=S)Nc1cccc(NC(=O)c2ccc(Cl)cc2Cl)c1	14
Cl.N=c1sccn1CC(=O)Nc1ccc(Cl)c(S(=O)(=O)N2CCOCC2)c1	-50.4
O=C(O)CN(c1ccccc1)S(=O)(=O)c1cc(C(F)(F)F)cc(C(F)(F)F)c1	11
O=C(COc1coc(CN2CCCc3ccccc32)cc1=O)Nc1ccc([N+](=O)[O-])cc1	0.271
O=C(c1ccccc1SCc1ccc(F)cc1)N1CCOCC1	37.2
COc1ccc(-c2cn3c(C)c(C(=O)NC(C)(C)C)sc3n2)cc1	-7.22
O=C(CCc1nnc(-c2ccccc2)o1)NCc1cc(F)ccc1F	14.1
COc1ccc(Cl)cc1NC(=O)CN(C)C(=O)c1cn2ccccc2n1	-13.6
COCCn1c(=NC(=O)CSCC(=O)N2CCOCC2)sc2ccccc21	4.59
N#Cc1ccc(CSc2nnc(NC(=O)C3CCCO3)s2)cc1 (stereo not shown)	-27
CCOc1ccc(C(=O)N2CCN(c3ncccn3)CC2)cc1	-9.8
O=C(COc1cc2oc(=O)c3c(c2cc1Cl)CCC3)Nc1ccc(CN2CCOCC2)cc1	18.5
O=C(Nc1ncnc2sc3c(c12)CCC3)c1ccco1	-4.5
CCOC(=O)C1(CCc2ccccc2)CCN(C(=O)c2cccc(C)n2)CC1	-11.4
Cc1cccc(C)c1N1C(=O)c2ccccc2C1=O	-5.63
O=C(N/N=C/c1ccc(Cl)s1)C(O)c1ccccc1 (stereo not shown)	5.02
COc1ccccc1/C=C/C=N/n1c(COc2ccccc2)n[nH]c1=S	15.4
CCOC(=O)Cn1ccc(NC(=O)COc2ccc(F)cc2)n1	-0.732
Clc1ccc2nsnc2c1[NH2+]C1=NCCN1.[Cl-]	12.4
Cc1cc(C(=O)CN2C(=O)c3ccccc3S2(=O)=O)c(C)n1-c1ccccc1	3.57
CN(C)C(=O)N1CCN(S(=O)(=O)c2ccc3ccccc3c2)CC1	1.65
O=C(OC1Cn2c(=O)ccc(=O)n2C1)c1ccccc1	11.3

Structure (SMILES)	hERG current change (%, negative = inhibition) at 10uM [%]
CN(C)Cc1c(C(=O)N/N=C/c2ccoc2)nnn1-c1nonc1N	-26.6
CCN=C1SC(CC(=O)Nc2ccc3c(c2)OCO3)C(=O)N1CC (stereo not shown)	-3.33
COCCNc1nc(N2CCCCC2)c2cnn(C)c2n1	1.81
COC(=O)c1ccc(OC(=O)c2nn(C)cc2Cl)c(OC)c1	15.1
COC(=O)C1=C(C)NC(=O)C1(NC(=O)CN1CCCC1=O)C(F)(F)F (stereo not shown)	0.102
O=C(O)C(=O)O.O=[N+]([O-])c1cc2c(cc1CNCCc1ccc3c(c1)OCO3)OCO2	-61.5
CCOC(=O)C1(Cc2ccc(O)cc2)NC(c2ccccc2F)C2C(=O)N(C)C(=O)C21 (stereo not shown)	-2.04
O=C(CCc1nnc(Cc2ccc(-c3ccccc3)cc2)o1)NCCc1ccccn1	-31.8
Cc1[nH]c(=S)[nH]c(=O)c1CCOc1ccccc1	14.2
Cc1ccc(NC(=S)N(Cc2ccc(Cl)cc2)Cc2ccc(C(=O)O)cc2)cc1Cl	7.34
Cc1cc2c(N=NC(=O)CCc3ccccc3)c(O)[nH]c2cc1Br	-0.616
CCOc1ccc(C(C(=O)NCCOC)N(CCOC)C(=O)CCC(=O)Nc2ccccn2)cc1 (stereo not shown)	4.6
O=C(c1cc(-c2cccc(O)c2)on1)N1CCCC1	8.4
CC(C)C(=O)N1CCN(c2ccc([N+](=O)[O-])c(NC(C)c3ccccc3)c2)CC1 (stereo not shown)	-11.7
NC(=O)c1cc2ccccc2o/c1=N/NC(=O)c1cccc(Cl)c1	-22.9
CCOCCCNC(=O)CN1CCN(Cc2ccccc2C)C1=O	-5.69
COc1ccc(-n2c(Cc3cc(=O)[nH]c(=O)[nH]3)nnc2SCC(=O)Nc2ccccc2)cc1	1.2
O=C(CCC(=O)N1CCSc2ccccc21)Nc1cccc(F)c1	-28.3
CCOC(=O)CSc1nc2cc(C(=O)N3CCC(C(N)=O)CC3)ccc2c(=O)n1C1CCCCC1	-10.7
Cc1ccccc1CSc1nnnn1-c1ccc(C(N)=O)cc1	14.7
CSCCC(NS(=O)(=O)c1ccc(Cl)c(Cl)c1)C(=O)O (stereo not shown)	12.3
CCN(CC)S(=O)(=O)c1ccc(C(=O)OCC(=O)c2ccc3c(c2)NC(=O)CO3)cc1	-12.6

Structure (SMILES)	hERG current change (%, negative = inhibition) at 10uM [%]
CC(C)CCNC(=O)CN(C(=O)CCC(=O)Nc1ccccn1)c1ccc2c(c1)OCCO2	0.242
COC(=O)c1c(NC(=O)c2ccc(S(=O)(=O)N3CCOCC3)cc2)sc2c1CCN(C(C)C)C2	-15.3
Cc1cnc(NC(=O)C2(c3ccccc3)CC2)s1	7.07
COC(=O)CN(C)C(=O)c1cccc(OC2CCN(S(=O)(=O)N(C)C)CC2)c1	13.1
CC(C)C(=O)Nc1ncc2c(n1)CC(c1cccs1)CC2=O (stereo not shown)	-17.3
CC(OC(=O)c1cc(Br)ccc1O)C(=O)Nc1ccc(S(=O)(=O)N2CCCC2)cc1 (stereo not shown)	17.9
O=C(O)c1ccc(N/N=C/c2ccc(-c3ccccc3Cl)o2)cc1	22.3
Cc1ccc(S(=O)(=O)N2CCC(C(=O)OCC(=O)N3CC(C)CC(C)C3)CC2)cc1C (stereo not shown)	6.97
COC(=O)c1cnc(Oc2ccc(NC(=O)NC(=O)c3c(F)cccc3Cl)cc2)cc1C(F)(F)F	10.4
C/C(=N\NC(=O)c1ccc(NS(=O)(=O)c2cccs2)cc1)c1ccncc1	4.24
COC(=O)c1c(-c2ccccc2)csc1NC(=O)C1CC=CCC1C(=O)O (stereo not shown)	4.11
COc1ccccc1CN1C[C@@H]2C[C@@H](c3cccc(C)c3)N3CCC[C@@]23C1=O	-37
C=CCNC(=O)c1ccc(-c2cccc([N+](=O)[O-])c2)o1	-9.81
CCCSc1nc(N)c2c3c(sc2n1)CN(C)CC3	-37.1
O=C(N/N=C/c1ccco1)c1ccc(Br)o1	11.5
Cc1cccc(NC(=O)/C(C#N)=C\c2cccnc2)c1	-19.2
COc1ccc(-c2noc(CCC(=O)NC3CCCCC3)n2)cc1OC	19.5
CC(NC(=O)NC(=O)c1cccc(Cl)c1)c1ccccc1 (stereo not shown)	19.2
O=C(NCC(c1ccco1)N1CCc2ccccc2C1)c1ccc([N+](=O)[O-])cc1 (stereo not shown)	-58.1
CCc1sc(NC(=O)CCC(=O)O)nc1-c1cc2ccccc2oc1=O	27.9
c1csc(Cc2nn3c(-c4ccncc4)nnc3s2)c1	-28.3
CC(=O)c1ccc(NC2CC(O)C(O)CO2)cc1 (stereo not shown)	7.81

Structure (SMILES)	hERG current change (%, negative = inhibition) at 10uM [%]
CCCCn1c(-c2sccc2C)n[nH]c1=S	18.4
Cc1cc([N+](=O)[O-])nn1CC(=O)N1CCc2ccccc2C1	-15
O=C(CCNc1cc(Cl)cc(Cl)c1)c1cccs1	17.4
Cc1ccccc1NC(=S)N1CCN(c2ccccc2)CC1	20.6
CC1CC(C)CN(c2cc(N(C)CCO)c([N+](=O)[O-])c3nonc23)C1 (stereo not shown)	-11.3
S=C(NCCC1=CCCCC1)Nc1ccc(Cl)cc1	4.77
COc1cccc(C2CC(=O)Nc3c2c(=O)[nH]c2ncnn32)c1 (stereo not shown)	20.6
CC(C)NC[C@@H](O)c1ccc(O)c(O)c1.O=C(O)C(O)C(O)C(=O)O	16.7
Cc1sc2nc3n(c(=O)c2c1C)CCCS3	-8.05
O=C(N1CCCC1)n1c(Cc2ccccc2)nc2ccccc21	-10.2
CCOc1ccc(Br)cc1S(=O)(=O)Nc1ccc(C(=O)Nc2ccccc2OC)cc1	-0.331
Cn1c(C(=O)NN)cc2cc(OCc3ccccc3)ccc21	13.3
CCN(CC(=O)Nc1c(F)cccc1F)C(=O)Cc1ccccc1	-1.53
COc1ccc(CCNC(=O)c2nonc2N)cc1OC	2.17
CSc1ccc(C(=S)N2CCN(Cc3ccccc3)CC2)cc1	-50.4
CCOc1ccccc1Nc1nnc(SCC(=O)Nc2cc(C)on2)s1	6.14
COc1ccc(CCNC(=O)CNCC2CCCCC2)cc1OC.O=C(O)C(=O)O	29.1
CCCCNC(=O)C1CCN(Cc2ccc(OCc3ccccc3)cc2)CC1.O=C(O)C(=O)O	-71.7
CCCc1nnc(NC(=O)c2nc(S(=O)(=O)Cc3ccc(C)cc3)ncc2Cl)s1	-9.73
OCc1nn2c(c1Br)NC(c1ccccc1)CC2C(F)(F)F (stereo not shown)	-9.56
CS(=O)(=O)N(CC(=O)NCCC1=CCCCC1)c1ccc2c(c1)OCO2	-2.28
CCOC(=O)c1nc(C)sc1-c1ccnn1S(=O)(=O)c1ccccc1C(F)(F)F	-25.1
